{"source": "PubChem BioAssay AID686971", "about": "(National Center for Advancing Translational Sciences (NCATS), 2013)", "note": "Screen size: about 360,000 compounds; about 7,500 (2.1%) were called active. Inconclusive results, whose numbers are uncertain, are shown with a selection of clear calls. Calls come from the whole dose curve; as a rule, active = well fitted cell-killing curve with a large enough effect; inconclusive = small, poorly fitted or top-dose-only effect, or effect the other way, or another doubt; inactive = no such curve, though single readings can be large or run the other way. No potency is given beside an inconclusive call; the fits are too rough.", "data": [{"experiment": "qHTS for induction of synthetic lethality in tumor cells producing 2HG: qHTS for the HT-1080-IDH1KD cell line; note: potency is the fitted concentration of half-maximal effect; tags give direction and shape of the fitted curve;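 for activity, negative = toxicity: 0% = DMSO wells and -100% = cell-free medium wells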", "settings": "HT-1080 IDH1 knockdown viability, ATP luminescence, 48 h; activity, negative = toxicity: at 46.1 µM (top of the series) unless noted", "in_short": "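CellTiter-Glo luminescence after 48 h compound exposure at 37 degrees C of IDH1-knockdown HT-1080 cells in 5% FBS RPMI. %Activity scaled between DMSO wells and cell-free media wells, with curves fitted and assigned curve classes.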", "values": [{"compound": "CCOC(=O)C(C)Oc1ccc(NC(=O)C(Cl)Cl)cc1", "note": "(stereo not given)", "activity, negative = toxicity": "inactive: 9.95%"}, {"compound": "O=C(Cn1c(C(F)(F)F)nc2ccccc21)NCCCN1CCOCC1", "activity, negative = toxicity": "inactive: 2.56%"}, {"compound": "O=C(COC(=O)C12CC3CC(CC(O)(C3)C1)C2)Nc1cccc(Br)c1", "activity, negative = toxicity": "inactive: -0.185%"}, {"compound": "CCN(c1ccccc1)S(=O)(=O)c1ccc(C(=O)N(CCCN(C)C)c2nc3cc4c(cc3s2)OCO4)cc1", "Potency": "inconclusive [cytotoxic, single point]"}, {"compound": "O=C(CCS(=O)(=O)c1ccccc1)Nc1ncc([N+](=O)[O-])s1", "Potency": "active: 16.4 µM"}, {"compound": "CCCCCOC(=O)C1=C(C)Nc2nnnn2C1c1ccccc1Cl", "note": "(stereo not given)", "Potency": "active: 20.6 µM"}, {"compound": "CC(C)(C)NC(=O)C(C1CC1)n1c(=O)c(-c2cc3ccccc3[nH]2)nc2ccccc21", "note": "(stereo not given)", "Potency": "inconclusive [cytotoxic, single point]"}, {"compound": "Fc1cccc(Cc2c(-c3ccco3)nc3ccc(Cl)cn23)c1", "Potency": "inconclusive [cytotoxic, single point]"}, {"compound": "CC(C)(C)OC(=O)NCCCCCc1cn([C@@H](CO)C(=O)NCCCCCCCCCCC(=O)N2CCN(C(=O)OC(C)(C)C)CC2)nn1", "Potency": "active: 16.4 µM"}, {"compound": "O=C(C[n+]1ccc2ccccc2c1)c1cccc2ccccc12", "Potency": "inconclusive [cytotoxic, single point]"}, {"compound": "Cc1ccc(-c2nn(-c3cccc(F)c3)cc2CNCCc2ccncc2)o1", "Potency": "inconclusive [cytotoxic, single point]"}, {"compound": "Cc1ccc(C(=O)c2cc([N+](=O)[O-])ccc2N2CCCCC2)cc1", "Potency": "active: 0.92 µM"}, {"compound": "Cc1ccc(OC(=O)NC2CCS(=O)(=O)C2)cc1C", "note": "(stereo not given)", "Potency": "inconclusive [rising, partial curve, poor fit]"}, {"compound": "Cc1ccc2c(c1)c1c3n2CCN(C(=O)CCl)C3CCC1", "note": "(stereo not given)", "Potency": "inconclusive [cytotoxic, single point]"}, {"compound": "COc1ccc(-c2noc(CCC(=O)Nc3cc(Cl)c(OC)cc3OC)n2)cc1", "Potency": "inconclusive [cytotoxic, single point]"}, {"compound": "NC(=O)c1ccc(=O)n(C2OC(CO)C(O)C2O)c1", "note": "(stereo not given)", "Potency": "inconclusive [cytotoxic, single point]"}, {"compound": "CCCCN(C)CCNC(=S)Nc1ccc2nc(N3CCN(CC)CC3)cc(C)c2c1", "Potency": "active: 29.1 µM"}, {"compound": "CC(=O)NCCC(=O)N(Cc1ccccc1)c1nc2c(C)cccc2s1", "Potency": "inconclusive [cytotoxic, single point]"}, {"compound": "CCO[C@H]1OC(C(=O)N2CCN(Cc3ccc4c(c3)OCO4)CC2)=C[C@@H](c2csc3ccccc23)[C@@H]1CCCO", "Potency": "inconclusive [cytotoxic, single point]"}, {"compound": "CCOc1ccc(Nc2nc3cc(S(=O)(=O)N(CC)CC)ccc3o2)cc1", "Potency": "inconclusive [cytotoxic, partial curve]"}, {"compound": "CCCCCc1c(-c2cccc(OC)c2)ncn1CCc1ccccc1OC", "Potency": "inconclusive [cytotoxic, single point]"}, {"compound": "COc1cc(/C=C/C(C)=NNc2ccccc2)ccc1O", "Potency": "inconclusive [cytotoxic, partial curve]"}, {"compound": "O=C(c1ccc(F)cc1)N1CCN(c2ccc([N+](=O)[O-])cc2-n2cccc2)CC1", "Potency": "inconclusive [cytotoxic, single point]"}, {"compound": "Cc1ccc(-c2ccc(CCC(=O)O)n2-c2ccc(C(=O)O)cc2)cc1", "activity, negative = toxicity": "inactive: 11.7%"}, {"compound": "Cc1ccc(C)c(NC(=O)CN(C)C(=O)CCN2C(=O)c3ccccc3C2=O)c1", "activity, negative = toxicity": "inconclusive: 32%"}, {"compound": "COc1ccc(C(=O)/C=C2/c3ccccc3CC(C)(C)N2C)cc1", "Potency": "active: 6.31 µM"}, {"compound": "CCC(=O)NC(c1ccc(C)cc1)c1cc([N+](=O)[O-])c2cccnc2c1O", "note": "(stereo not given)", "Potency": "active: 13 µM"}, {"compound": "CC(C)c1ccc(/C=N/NC(=O)c2cc(-c3cccc([N+](=O)[O-])c3)n[nH]2)cc1", "Potency": "active: 23.1 µM"}, {"compound": "Cc1cc2oc(C(=O)Nc3c(C)n(C)n(-c4ccccc4)c3=O)c(C)c2cc1C", "Potency": "inconclusive [cytotoxic, partial curve]"}, {"compound": "COc1ccc2c(c1)c1nc3ccccc3nc1n2CC(=O)OC(C)C", "Potency": "inconclusive [cytotoxic, partial curve]"}, {"compound": "Cc1noc(C)c1COC(=O)c1cccc(S(=O)(=O)N2c3ccccc3CC2C)c1", "note": "(stereo not given)", "Potency": "inconclusive [cytotoxic, partial curve]"}, {"compound": "Clc1cccc(Cl)c1/C=N/Nc1c(Cl)cncc1Cl", "Potency": "active: 5.17 µM"}, {"compound": "CCC(C)Cn1cnc2c(Sc3c([N+](=O)[O-])ncn3C)nc(N)nc21", "note": "(stereo not given)", "Potency": "inconclusive [cytotoxic, partial curve]"}, {"compound": "CN(CC(=O)Nc1ccc(Cl)c(C(F)(F)F)c1)C(=O)C1CCN(C(=O)c2ccc(Cl)cc2)CC1", "Potency": "inconclusive [cytotoxic, partial curve]"}, {"compound": "OCC[C@H]1C[C@@H](O)[C@H](O)[C@]2(OCc3ccccc32)O1", "activity, negative = toxicity": "inactive: 9.56%"}, {"compound": "CC(=O)N1CC(=O)N=C1SCC(=O)Nc1nc(C)c(-c2ccccc2)s1", "Potency": "inconclusive [cytotoxic, partial curve]"}, {"compound": "CN(C)c1ccc2nsnc2c1[N+](=O)[O-]", "Potency": "inconclusive [rising, partial curve, poor fit]"}, {"compound": "CSC1=NC(C)(C)C=C(/C=C/c2ccc(Cl)cc2Cl)N1", "Potency": "inconclusive [cytotoxic, single point]"}, {"compound": "OCCCNc1cc(-c2ccccc2)nc2cc(-c3ccc(F)cc3)nn12", "Potency": "inconclusive [cytotoxic, single point]"}, {"compound": "COc1ccc(NC(=O)CN2CCC(Cc3ccccc3)CC2)cc1S(=O)(=O)N1CCOCC1", "activity, negative = toxicity": "inactive: -11.6%"}, {"compound": "Cc1sc(N2CCN(S(=O)(=O)c3ccc4c(c3)NC(=O)CO4)CC2)nc1-c1ccccc1", "activity, negative = toxicity": "inconclusive: 36.3%"}, {"compound": "O=C(CCCOc1ccccc1)Nc1ccc(Cl)cn1", "activity, negative = toxicity": "inactive: 7.86%"}, {"compound": "COC(=O)c1c(C)[nH]c(C(=O)/C=C/c2ccccc2)c1C", "activity, negative = toxicity": "inconclusive: 30.7%"}, {"compound": "CCn1cc(C(=O)OCC(=O)Nc2ccccc2OC(F)F)c(=O)c2ccc(C)nc21", "activity, negative = toxicity": "inactive: -13.3%"}, {"compound": "COc1cc(Cn2c3ccc(NC(=O)CCc4ccccc4)cc3c(=O)n2C)ccc1F", "Potency": "inconclusive [cytotoxic, full curve]"}]}]}
